The values below come from the supplement of paper PMC10477191.

Structures are written as SMILES. ± gives the standard deviation of the averaged measurements. The list shows a part of the results.

The subject of this test is Drosophila virilis. The experiment in a line: attraction index (odor vs solvent trap) (index (-1 to 1)); higher = more attraction to the odorant. The following applies: test temperature 23 °C; odor dose: 10^-2 dilution in mineral oil. As for the experimental part: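 Two-choice trap assay at 23 °C and 70% humidity. Starved adult flies (20 per box, 4-6 days old) chose between a trap with odorant (2 µl at 10^-2 in 200 µl mineral oil) and a solvent trap; counts were taken after 24 h.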
Regarding `CCOC(=O)C(C)O` (stereo not drawn) [ethyl lactate], the attraction index was 0.268 ± 0.43. `CCCCCCO` [1-hexanol] registered an attraction index of 0.22 ± 0.54.

As to `COc1ccccc1O` [guaiacol], the attraction index was -0.704 ± 0.15. As for `COC(=O)c1ccccc1O` [methyl salicylate], the figure is 0.454 ± 0.23; as for `CCOC(=O)CC(C)O` (stereo not drawn) [ethyl 3-hydroxybutyrate], 0.58 ± 0.39. As for `CC(=O)c1ccccc1` [acetophenone], the figure is -0.466 ± 0.5; as for `COC(=O)c1ccccc1` [methyl benzoate], -0.395 ± 0.27; as for `CCCCCC(C)=O` [2-heptanone], 0.052 ± 0.25. As to `CCCC(=O)OCc1ccccc1` [benzyl butyrate], the attraction index is 0.468 ± 0.28. Consider `CCCCCC(=O)OCC` [ethyl hexanoate], for which the attraction index worked out at 0.0404 ± 0.35. `CC(=O)CCC=C(C)C` [6-methyl-5-hepten-2-one] yielded an attraction index of -0.666 ± 0.29. As for `C=CC(O)CCCCC` (stereo not drawn) [1-octen-3-ol], the figure is -0.258 ± 0.5; as for `CC(=O)OC/C=C(\C)CCC=C(C)C` [geranyl acetate], -0.235 ± 0.3. For `CCCCCCOC(C)=O` [hexyl acetate], the attraction index was -0.744 ± 0.25. The compound `CCCCCOC(C)=O` [pentyl acetate] yielded an attraction index of -0.0558 ± 0.38. Turning to `CC(=O)C(C)O` (stereo not drawn) [acetoin], the attraction index was found to be 0.593 ± 0.26. In turn, `CC(C)OC(=O)c1ccccc1` [isopropyl benzoate] had an attraction index of 0.00695 ± 0.4. `COc1cccc(OC)c1O` [2,6-dimethoxyphenol]: the attraction index is -0.25 ± 0.53.
